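Following 48 hours of exposure in 96-well plates, responses at five concentrations were used to interpolate endpoints linearly. GI50 is the concentration that inhibits growth by half. At the TGI there is no net growth.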 Peptide text beside a SMILES is read from it. * marks the point of attachment. Cbz = O=C(OCc1ccccc1)*
Each compound was assayed on NCI-H322M lung (assay: NCI anticancer screen, dose series, 48 h).

Compound	TGI [µM]	GI50 [µM]
COC(=O)C1=C(C(=O)OC)C2(C(=O)OC)OC1(OC)C(C1(C(=O)OC)C(C(=O)OC)=C1C(=O)OC)=C2C(=O)OC (stereo unspecified)	> 100	–
CC/C=C\CCC/C=C1/C(=O)C=C[C@@H]1C/C=C\CCCC(=O)O	17.9	4.46
Cc1cccc2c1C(=O)C(C1OC(=O)c3ccccc31)C2 (stereo unspecified)	> 100	–
Cc1ccc(S(=O)(=O)N/N=C2\C=C[C@]3(CC2)C(=O)N(C)c2ccccc23)cc1	> 100	–
CC[C@H](C)[C@H](NC(=O)C12C3C4C1C1C2C3C41NC(C)=O)C(=O)N(C)[C@H](C[C@@H](OC(C)=O)c1nc(C(=O)N[C@@H](Cc2ccccc2)C[C@H](C)C(=O)OC)cs1)C(C)C (stereo partly specified)	> 14.3	0.995
O=[N+]([O-])c1ccc(Cl)c(C2SCc3nc4ccccc4n32)c1 (stereo unspecified)	> 100	–
O=Cc1coc2ccccc2c1=O	> 100	–
O=c1[nH]c(=S)[nH]c(O)c1/C=C1\C=CC=N1	75.2	–
O=[N+]([O-])c1ccc2c(N=Nc3c(O)ccc4ccccc34)c(O)cc(S(=O)(=O)O)c2c1	50	–
N#Cc1c(C#N)c(SSc2c(C#N)c(C#N)c(N)n2-c2ccccc2)n(-c2ccccc2)c1N	49.3	–
CC1OC(=O)c2ccccc2NC1=O (stereo unspecified)	> 100	–
CCC1(CN(C)C)CC/C(=C\c2ccc3c(c2)OCO3)C1=O (stereo unspecified)	> 100	–
CCOC(=O)C12CC1(C(=O)OCC)C1CCC2C1 (stereo unspecified)	> 100	–
Cn1c(=O)n(CC(Br)CBr)c(=O)n(CC(Br)CBr)c1=O (stereo unspecified)	> 100	–
CCS/C(Nc1ccccc1)=C(\C#N)C(=O)Nc1ccc(OC)cc1	> 100	5.81
COc1ccc(/C=C(\C#N)c2cc3ccccc3n2C)cc1	> 100	0.57
O=C(NNS(=O)(=O)c1cc(C(F)(F)F)cc(C(F)(F)F)c1)c1cnn(-c2ccc(Cl)cc2)c1C(F)(F)F	58.5	21.6
CC(C)(C)CC(C)(C)c1ccc(OCCOCCSC(=N)N)cc1	9.15	2.92
COc1ccc(C(=O)C=C2NCCN2)cc1	> 100	–
COc1ccc(/C=C\c2cc(OC)c(OC)c(OC)c2)c(NS(=O)(=O)c2ccc(C)cc2)c1O	> 100	0.0779
O=C(/C=C/c1cccc(Cl)c1)c1ccc(Cl)cc1Cl	27.9	11.6
O=C(/C=C/c1ccc(Cl)c(Cl)c1)Oc1ccc(/C=C2\CCCCC2=O)cc1	> 100	–
C[C@H]1[C@@H](OCC(CO[C@H]2O[C@@H]3O[C@@]4(C)CC[C@H]5[C@H](C)CC[C@@H]([C@H]2C)[C@@]35OO4)=NOCC(=O)O)OC2O[C@@]3(C)CC[C@H]4[C@H](C)CC[C@@H]1[C@@]24OO3 (stereo partly specified)	23.3	10.7
CC[C@@H]1OC2(C)CC(S(=O)(=O)c3ccccc3)CC1O2 (stereo partly specified)	> 100	–

Compound	TGI [µM]	GI50 [µM]
COc1ccc2c3c(c(OCCCN(C)C)nc2c1)-c1ccc(Cl)cc1C3=O	19.9	3.9
CO[C@H]1O[C@@H]2CO[C@@H](c3ccccc3)O[C@H]2C[C@]12CCC/C=C\CO2	> 75	–
CC(C)(C)OC(=O)N1CCC23CCCC2C(=O)CC=C13 (stereo unspecified)	> 100	–
CN(C)c1ccc(/C=C/c2ccnc3ccccc23)cc1	> 100	21.1
CCOC(=O)c1c(SCCO)n(-c2ccccc2)c(=S)n(-c2ccccc2)c1=O	> 100	–
COC(=O)CCC1=C(C)c2cc3[n-]c(cc4nc(cc5[n-]c(cc1n2)c(CCC(=O)OC)c5C)C=C4C)cc3C.[Cd+2]	> 100	33.9
O=C(C1OC1c1ccc([N+](=O)[O-])cc1)C12CC3CC(CC(C3)C1)C2 (stereo unspecified)	42.7	–
CC(=O)c1cccc(NC2C(N)C(NC(=O)N(C)C)(C(C)O)C(C)(O)C2(O)COC(=O)c2c(C)cccc2O)c1 (stereo unspecified)	0.302	–
NC(CCCCNc1ccn(C2OC(CO)C(O)C2O)c(=O)n1)C(=O)O (stereo unspecified)	> 100	–
COC/C=C\[C@@]1(O)CCCC[C@@H]1CC(OC)OC	> 100	–
COc1ccc(NC(=O)c2cc(OC)c(OC)c(OC)c2)cc1O	> 100	> 100
O=c1[nH]c(-c2ccc(C(F)(F)F)cc2)nc2c1CSCC2	> 100	> 67.2
CC(C)[Si]1(C(C)C)OCC2OC(n3ccc(=O)[nH]c3=O)C(O)(CO)C2O[Si](C(C)C)(C(C)C)O1 (stereo unspecified)	30.8	–
CC12ON=C(c3ccccc3)N1C=CN1C(c3ccccc3)=NOC12 (stereo unspecified)	> 100	–
COc1cc(C2C(C#N)=C(N)OC3=C2C(=O)c2ccccc2C3=O)cc(OC)c1OC (stereo unspecified)	41.2	10.4
Cn1c(O)c(C(=O)Nc2ccc([N+](=O)[O-])cc2)c(=O)n(C)c1=S	8.51	–
CCOC(=O)CCC(NC(=O)OCc1ccccc1)C(=O)NC(CCC(=O)OCC)C(=O)NC(CCC(=O)OCC)C(=O)NC(CCC(=O)OCC)C(=O)NC(CCC(=O)OCC)C(=O)OCC (stereo unspecified)	> 100	–
COc1nc(=O)n(C2CC(N=[N+]=[N-])C(CO)O2)cc1C (stereo unspecified)	> 100	–
COC(=O)CCCCC/C(=C\C(=O)C(Cl)(Cl)Cl)OC	69.9	–
CCOC(=O)C(C)(C)Oc1ccc2c(-c3ccc(Cl)cc3)cc(=O)oc2c1	> 100	–
O=[N+]([O-])c1ccccc1C1N2CCCCC2[C@@H]2c3[nH]c4ccccc4c3CCN12 (stereo partly specified)	27	–
COc1ccc(-c2ccc(-c3ccc(C(=N)N)cn3)s2)cc1Cl	2.86	1.49
O=C1/C(=C/c2cccs2)CCC/C1=C\c1cccs1	> 100	51.5
CN(Cc1cnc2nc(N)nc(N)c2n1)c1ccc(C(=O)NC(CCC(=O)O)C(=O)O)cc1 (stereo unspecified)	> 100	0.406

Compound	TGI [µM]	GI50 [µM]
COc1cc(Br)c(CC2=NCCc3cc(OC)c(OC)cc32)cc1OC	> 100	–
CCN(CC)CCCNC(=O)Cc1ccccc1Nc1c(Cl)cccc1Cl	28.9	–
CC(C)(C)OC(=O)NC(Cc1ccc([N+](=O)[O-])cc1)C(=O)NC(CCCCNC(=O)OCc1ccccc1)C(=O)ON1C(=O)CCC1=O (stereo unspecified)	> 100	–
CC#CC(=O)N1CCC[C@H]1c1nc(-c2ccc(C(=O)Nc3ccccn3)cc2)c2c(N)nccn12	> 100	24
Cc1ccc2[nH]c3c(C)c4ccncc4c(C)c3c2c1	1.87	–
c1ccc(-c2cc(-c3cc(-c4ccccc4)n(-c4ccccc4)n3)nn2-c2ccccc2)cc1	> 100	–
CCNCC(O)c1ccc(N)c([N+](=O)[O-])c1 (stereo unspecified)	> 100	–
C[C@@H]1CCC2[C@@H](C)C(=O)O[C@@H]3C4C[C@@H]1[C@@]23OO[C@@]4(C)O (stereo partly specified)	> 100	–
C=C1C(C)C2C(Cc3ccccc3)NC(=O)C23C(OC(C)=O)/C=C/C(C)(O)CC(C)C/C=C/C3C1O (stereo unspecified)	> 100	–
CSc1c(C#N)c2n(c3ccccc3[n+]2C)c2ncccc12	> 100	–
Cc1[nH]c2ccccc2c1C=Nc1ccc(Oc2ccccc2)cc1	29.1	–
Cn1cnc([N+](=O)[O-])c1Sc1ncnc2c1ncn2C1OC(CO)C(O)C1O (stereo unspecified)	> 100	7.58
Cc1ccc(NC(=O)C(=O)Cc2nc3ccccc3o2)c(C)c1	> 100	–
CSCCC(NC(c1ccccc1)c1ccccc1)[P+](=O)O (stereo unspecified)	> 100	–
CC(C)C(N)(C(=O)O)c1ccccc1 (stereo unspecified)	> 100	–
NC(=O)N(O)c1cccc(Br)c1	> 100	–
Cn1c(=O)c2[nH]c(COc3ccc(C(C)(C)C)cc3)nc2n(C)c1=O	65.3	14.4
Oc1ccccc1-n1c(-c2ccccc2)ccc1-c1ccccc1	26.3	10.3
CC(=O)OC1CCC2(C)C(=CC(C3C=C4CC(OC(C)=O)CCC4(C)C4=C3C3CC5OC6(CCC(C)CO6)C(C)C5C3(C)CC4)C3=C2CCC2(C)C3CC3OC4(CCC(C)CO4)C(C)C32)C1 (stereo unspecified)	62.8	–
CC(=O)OC[C@@]12C[C@H]3C(=O)C(C)(C)C[C@H]3[C@]1(C)[C@@H](OC(C)=O)[C@]1(O)[C@H]([C@@H](OC(=O)c3ccccc3)[C@@H](C)[C@H]1OC(C)=O)[C@H]2OC(C)=O	> 20	–
Cc1cc2c(-c3ccccc3)cc(=O)[nH]c2cc1N	> 100	–
CC(Cc1ccc(O)c(O)c1)C(C)Cc1ccc(O)c(O)c1 (stereo unspecified)	57.8	–
c1ccc(-c2nc(N3CCNCC3)c3nc(-c4ccccc4)oc3n2)cc1	3.06	1.67
Oc1c(CN2CCCC2)cc(COCc2ccccc2)c2cccnc12	11.4	1.07

Compound	TGI [µM]	GI50 [µM]
COc1ccc(O)c2c1C(=O)CCCC2=O	> 100	–
COc1cc2c(cc1C)n(O)c(C)c(C(=O)C/C(=N/NC(=O)C[N+](C)(C)C)C(=O)Nc1cccc(Cl)c1C)[n+]2=O	> 100	–
COc1cccc(C2C(C(=O)Nc3cc(=O)n(C)c(=O)n3C)=C(C)NC(C)=C2C(=O)Nc2cc(=O)n(C)c(=O)n2C)c1O	> 100	–
CCOC(=O)C(C)NC(=O)C(C)NC(=O)C(C)NC(=O)C(C)NC(=O)C(C)NC(=O)C(C)NC(=O)C(C)NC(=O)OCc1ccccc1 (stereo unspecified) (Cbz-AAAAAAA-OEt; configuration not given here)	> 100	–
CCN1/C(=C/C(C)=C/c2sc3ccccc3[n+]2CC)Sc2ccccc21	1.74	–
N#Cc1nc(-c2ccccc2)oc1S(=O)(=O)N1CCOCC1	60.1	19.2
O=C1C2=C(c3ccccc31)C(c1ccccc1Cl)N1C(=O)CSC1=N2 (stereo unspecified)	> 100	–
COc1ccc(C(Nc2ncccn2)c2cc3c(cc2O)OCO3)cc1 (stereo unspecified)	64.3	–
Fc1ccc(C(OCCN2CCC3CCC(C2)N3Cc2cc3ccccc3[nH]2)c2ccc(F)cc2)cc1 (stereo unspecified)	8.01	–
O=[N+]([O-])C1(C2([N+](=O)[O-])CCCC2)CCCC1	> 100	–
N#Cc1c(NC(=S)NCc2ccccc2)sc2c1CCN(N1CCc3c(sc(NC(=S)NCc4ccccc4)c3C#N)C1)C2	> 100	–
Nc1ccn(C2OC(COP(=O)(O)Oc3ccccc3)C(O)C2O)c(=O)n1 (stereo unspecified)	> 100	–
COc1cc(C2C(C(=O)Nc3ccccc3)=C(C)NC(C)=C2C(=O)Nc2ccccc2)ccc1O	> 100	–
C=C1C(=O)OC2/C=C(\C)C(O)/C=C\C(C)(O)CC(OC(=O)/C(C)=C/C)C12 (stereo unspecified)	> 100	–
Nc1ncc(Cc2nc3ccccc3s2)s1	> 100	–
C=C(Cl)C(Cl)(CBr)CCC(Cl)C(C)(C)Cl (stereo unspecified)	8.4	–
C#CCOC(=O)c1ccccc1OC(C)=O	> 100	–
O=C(CCN1CCCC1)Nc1ccc2c(NCCCc3ccccc3)c3ccccc3nc2c1	2.75	1.3
CN1C[C@@H]2CCCN2P1Oc1cccc2cccnc12 (stereo partly specified)	> 100	–
CC1(C)CCc2c(c(N=Nc3ccccc3)c3ccccc3c2O)O1	> 100	–
CCc1cccc(C)c1NC(=O)NS(=O)(=O)c1ccc(C)cc1	> 100	–
O=C(O)c1ccccc1/C=N\NC1=NCCN1	> 100	–
O=C1c2cc(CCl)sc2C(=O)c2ccsc21	2.63	–

From PubChem BioAssay (NCI)
